According to paper PMC4336329 (PLoS ONE, 2015):
In all, about 310,000 compounds went through this assay and about 2,200 (0.71%) showed an effect of 50% or more. The effect is printed as a negative number. The list shows a part of the results.

What follows are molecules tested against human ether-à-go-go-related gene (hERG) potassium channel (human, UniProt Q12809) (assay: primary screen, population patch clamp on CHO cells stably expressing hERG).
Sequence of human ether-à-go-go-related gene (hERG) potassium channel (Q12809 whole entry, looked up): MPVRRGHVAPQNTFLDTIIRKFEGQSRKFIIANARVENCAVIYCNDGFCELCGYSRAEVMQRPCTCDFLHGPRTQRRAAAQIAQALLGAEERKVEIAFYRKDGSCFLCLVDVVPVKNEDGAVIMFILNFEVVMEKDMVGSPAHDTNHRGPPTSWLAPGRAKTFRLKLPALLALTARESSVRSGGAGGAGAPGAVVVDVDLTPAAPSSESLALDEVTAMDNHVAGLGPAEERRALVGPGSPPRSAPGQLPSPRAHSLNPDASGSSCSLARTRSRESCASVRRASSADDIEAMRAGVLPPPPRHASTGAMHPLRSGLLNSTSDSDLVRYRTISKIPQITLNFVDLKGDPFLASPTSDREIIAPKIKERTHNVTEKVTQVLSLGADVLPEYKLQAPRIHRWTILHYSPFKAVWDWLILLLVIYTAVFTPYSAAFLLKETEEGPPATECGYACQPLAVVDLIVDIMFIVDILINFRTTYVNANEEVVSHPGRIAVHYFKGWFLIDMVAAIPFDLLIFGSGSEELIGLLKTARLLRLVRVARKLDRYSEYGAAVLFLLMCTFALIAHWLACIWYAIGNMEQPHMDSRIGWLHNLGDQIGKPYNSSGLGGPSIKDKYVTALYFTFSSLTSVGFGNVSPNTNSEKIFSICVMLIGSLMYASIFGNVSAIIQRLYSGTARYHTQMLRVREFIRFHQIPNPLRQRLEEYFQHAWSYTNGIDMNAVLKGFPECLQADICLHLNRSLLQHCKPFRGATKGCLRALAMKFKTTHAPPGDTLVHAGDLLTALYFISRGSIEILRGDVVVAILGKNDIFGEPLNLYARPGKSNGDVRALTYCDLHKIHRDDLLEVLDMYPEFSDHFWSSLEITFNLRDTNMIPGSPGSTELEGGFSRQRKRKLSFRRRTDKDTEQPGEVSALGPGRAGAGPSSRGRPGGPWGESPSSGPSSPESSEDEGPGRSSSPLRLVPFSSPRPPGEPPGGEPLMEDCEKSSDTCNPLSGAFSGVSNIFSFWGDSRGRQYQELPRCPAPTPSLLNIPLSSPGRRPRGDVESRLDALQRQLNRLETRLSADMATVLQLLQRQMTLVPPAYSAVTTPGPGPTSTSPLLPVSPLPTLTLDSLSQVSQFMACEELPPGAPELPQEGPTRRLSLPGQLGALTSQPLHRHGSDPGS

SMILES | hERG current change (%, negative = inhibition) at 1uM [%]
CCOc1ccc(NC(=O)Nc2ccc3c(c2)nnn3C)cc1 | 1.68
COc1ccccc1C(=O)N1CCCC(c2nc(-c3cc(OC)c(OC)c(OC)c3)no2)C1 (centres unmarked) | -7.93
Cc1cccc(CCNC(=O)C2CCCN(c3cnccn3)C2)c1 (centres unmarked) | 9.86
CCCN(CC(=O)Nc1c(C)cccc1CC)C(=O)SCC | 8.18
NC(=O)CC(NC(=O)Cc1cccc2ccccc12)c1ccc(N2CCc3ccccc3C2)c([N+](=O)[O-])c1 (centres unmarked) | 9.64
CN(C(=O)CCN1C(=O)c2ccccc2C1=O)c1ccccc1 | 15.8
O=C(Nc1ccc(C(=O)O)cc1)/C(=C\c1ccc2c(c1)OCO2)NC(=O)c1ccccc1 | 15.6
Cc1ccc(NC(=O)C(=O)NCC2OCCc3ccccc32)cc1 (centres unmarked) | 10
O=C1CNC(=S)N1Cc1cccc(Cl)c1 | 21.2
CCOC(=O)Cn1c(=O)cnc2ccccc21 | 7.79
O=C1C2CC=CCC2C(=O)N1CC(=O)N(Cc1ccccc1)C1CCS(=O)(=O)C1 (centres unmarked) | -10.4
NC(=O)C(c1ccccc1)c1ccc(C(=O)c2ccccc2)cc1 (centres unmarked) | 7.86
CNC(=O)c1ccsc1NC(=O)c1ccc(Cl)s1 | 10.5
Cc1cc(C=O)c(C)n1-c1ccc(N2CCCC2)c([N+](=O)[O-])c1 | 10.4
COc1cc(NC(=O)Nc2ccc3c(c2)OCO3)cc(OC)c1OC | 14.5
Cc1nc(CNC(=O)C2CCC(=O)N(Cc3cccc(F)c3)C2)sc1C (centres unmarked) | 8.42
COCCCn1c(=O)c2sccc2n(Cc2ccccc2C)c1=O | 9.9
Cc1ccc(SCCC(=O)N2CCC(C)CC2)cc1 | 5.76
Nc1nc(Cl)cc(N2CCOCC2)n1 | 12.9
COc1ccccc1CNC(=O)CN(c1ccc(C)cc1)S(=O)(=O)c1c(C)noc1C | 3.42
COc1ccccc1C(=O)Nc1ccc(C(=O)N2CCCC2)cc1 | -0.807
CCc1ccc2oc(-c3ccc(NC(C)=O)cc3)nc2c1 | 10.8
CCOCCn1c2ccccc2c2nc3ccccc3nc21 | 9.09

SMILES | hERG current change (%, negative = inhibition) at 1uM [%]
Cc1nn(-c2cccc(Cl)c2)c2nc(-c3ccncc3)cc(C(=O)N3CCOCC3)c12 | 7.13
CCN(CC)c1ccc(CNc2nc3ccccc3n2C(C)C)cc1 | 4.8
Cc1cccc(C)c1NC(=O)CN(C)C(=O)c1cccc(S(=O)(=O)N2CCN(c3ccccc3)CC2)c1 | -4.32
Cl.Clc1ccc(Cn2c(CN3CCCC3)nc3ccccc32)cc1 | -39.4
C/C=C/C(=O)OCC(=O)Nc1cccc(Br)c1 | 20.8
COC(=O)Cc1c(O)ccn(CCc2ccc(S(N)(=O)=O)cc2)c1=O | 4.32
CCOC(=O)C1(O)CSc2nc3sc(C(=O)O)c(C)c3c(=O)n21 (centres unmarked) | 6.5
O=C(O)c1ccccc1-c1ccccc1C(=O)NCc1cccc(C(F)(F)F)c1 | 1.18
O=C(CCc1nc(-c2ccc(Cl)cc2)no1)NCC1CCCO1 (centres unmarked) | 14.3
O=S(=O)(Nc1nc(SCc2ccc(Cl)cc2)n[nH]1)c1ccccc1 | 11.2
CCCCOCP(=O)(CCCC)COCCCC | 8.53
Cc1cc(C)n(C(=O)c2ccc([N+](=O)[O-])cc2[N+](=O)[O-])n1 | 8.62
O=C(Nc1ccccc1)c1cccc(C(=O)Nc2ccccc2)n1 | 15.6
C=CCSc1cc(C)nc2c(-c3ccccc3)c(C)nn12 | 9.34
CCn1c(O)c(/C=N/N=C/c2ccc(OC)cc2)c2cc(C3=NNC(=O)CC3)ccc21 | 10.4
Cc1cc2oc(=O)cc(CN3CCc4ccccc43)c2cc1Cl | 11.9
Cc1ccc(NC(=O)CSc2nc3ccc(Nc4nc(N5CCOCC5)nc(N5CCOCC5)n4)cc3s2)cc1 | 13.6
COc1cc(NC(=O)c2ccc(Br)o2)ccc1NC(=O)c1ccccc1Cl | 3.98
COc1ccc(C(=O)NC(=S)Nc2ccc(N3CCN(C(C)=O)CC3)cc2)cc1[N+](=O)[O-] | 13.2
COc1ccc(CNc2oc(COc3ccc(Cl)cc3)nc2C#N)cc1 | 10.1
COc1ccccc1NC(=O)CCNC(=O)Cn1ccc2ccccc2c1=O | 10.5
CCCCCCn1c(O)c(C=NC2CCN(Cc3ccccc3)CC2)c(=O)[nH]c1=O | 2.55
CCOC(=O)C(NC(C)=O)(Nc1ccc(S(N)(=O)=O)cc1)C(F)(F)F (centres unmarked) | 14.4

SMILES | hERG current change (%, negative = inhibition) at 1uM [%]
CCOC(=O)N1CCN(c2nc(N(c3ccccc3)c3ccccc3)nc(-n3ccnc3)n2)CC1 | 10.5
CCOC(=O)Cc1c(C)c2c(O)cc(O)cc2oc1=O | -8.39
Cc1cc(O)ccc1Nc1nc(-c2cccnc2)cs1 | 7.35
CCOc1ccc(N2C(=O)S/C(=C\c3cccn3C)C2=O)cc1 | 9.14
O=C(COC(=O)c1cccc(Cl)c1)NC1CCS(=O)(=O)C1 (centres unmarked) | -0.0709
O=[N+]([O-])c1ccc(F)cc1OCc1cccc(S(=O)(=O)N2CCOCC2)c1 | -7.36
Cc1ccc(N2CN(Cc3cccnc3)CNC2=S)c(C)c1 | 2.21
NC1=C(c2ccccc2)C(=O)NC1=O | 14.5
COc1cc([N+](=O)[O-])ccc1N=Nc1c(N)[nH]n(-c2ccccc2)c1=O | 7.05
COc1ccc(-c2nnc(N)s2)cc1 | 11.5
COc1ccc2oc(=O)c(/C(C)=N/Nc3nc(-c4cc(C)ccc4C)cs3)cc2c1 | 10.8
O=C(Cc1ccccc1)N1CCN(Cc2cccc(Cl)c2)CC1.O=C(O)C(=O)O | 8.53
Cc1ccsc1C(=O)OCC(=O)NCC1CCCO1 (centres unmarked) | 3.16
CN(C)c1ccc(/C=C2\CC3C4CC=C5CC(O)CCC5(C)C4CCC3(C)C2=O)cc1 (centres unmarked) | 9.15
Cc1cccc(NC(=O)CSCc2cc(=O)n3nc(C4CC4)sc3n2)c1 | 11.8
CC1CCCCC1N1CN=C(Nc2nc3ccccc3s2)NC1 (centres unmarked) | -1.41
COc1ccc(C2CC(c3ccc(Cl)cc3)n3nc(N)nc3N2)cc1 (centres unmarked) | 2.81
O=C1c2sc3nc4ccccc4n3c2C(=O)N1c1ccccc1Cl | 12.2
COc1ccc(S(=O)(=O)Nc2ccc3c(c2)OCO3)cc1C(=O)O | 11.8
Cn1c(COc2ccccc2)nnc1SCc1nc2ccccc2[nH]1 | 9.91
CCC(C)c1ccccc1N1CC(C(=O)N2CCN(S(=O)(=O)c3ccc(F)cc3)CC2)CC1=O (centres unmarked) | 5.43
CCn1cc(C(=O)O)c(=O)c2cc(F)c(N3CCN(C(=S)NC(=O)c4ccc(Br)cc4)CC3)cc21 | 10.8
N/C(Cn1cncn1)=N\OC(=O)c1ccc(Cl)cc1 | 1.86

SMILES | hERG current change (%, negative = inhibition) at 1uM [%]
O=C(NN1CCOCC1)c1ccccc1 | -6.16
Cc1onc(-c2c(Cl)cccc2Cl)c1C(=O)NCCCN1CCOCC1 | 4.43
CCOC(=O)c1ccc(NC(=O)C(=O)NCc2ccc(/C=C(/C#N)C(=O)NCCOC)o2)cc1 | 2.09
Cc1ccnc(SCC(N)=O)n1 | 4.83
COc1cc2c(cc1OC)CN(CC(=O)NC(=O)NC1CCCCC1)CC2 | 6.55
O=C(CSC1=NC(=O)C(Cc2ccccc2)C(=O)N1)Nc1ncc(Br)cc1Br (centres unmarked) | 15.1
COc1ccccc1C(CNC(=O)c1cccc(S(=O)(=O)Nc2ccc(C)cc2)c1)N(C)C (centres unmarked) | 0.197
CN1CCN(C(=O)c2cccc(S(=O)(=O)N3CCCCC3)c2)CC1 | -0.128
CCCCCCCCC(=O)N1CCN(c2cc3c(cc2F)c(=O)c(C(=O)O)cn3CC)CC1 | -15.3
Cc1ccc(C(=O)Nc2ccc(S(=O)(=O)N3CCc4ccccc43)cc2)o1 | 0.408
O=C(CN(c1cc(Cl)ccc1Cl)S(=O)(=O)c1ccccc1)N1CCOCC1 | 8.35
Cc1cc(C(=O)N2CCC3(CC2)OCCO3)cs1 | -0.0188
CC(=O)Nc1ccc(CN2CCN(CCc3ccccc3)C(CCO)C2)cc1 (centres unmarked) | 5.38
COc1ccccc1NC(=O)c1cccc2c(Br)cccc12 | 7.18
C/C(=C\c1cccc(Cl)c1)C(=O)c1c(C)cc(C)[nH]c1=O | 12.2
CCCCCCC(=O)Nc1nc(C)c(-c2csc(Nc3ccccc3OC)n2)s1 | 14.7
COC(=O)C1=C(C)N(CCC2=CCCCC2)C(=O)C1 | 11
CCC1(C)Cc2c(sc3nnn(CC(=O)Nc4ccc(C)cc4)c(=O)c23)CO1 (centres unmarked) | 18
CCN1CCC(NC(=O)Nc2ccccc2C(=O)OC)CC1 | 6.74
Cc1nn(Cc2ccccc2)c(Cl)c1C(=O)OCC(=O)NC(=O)NC12CC3CC(CC(C3)C1)C2 | 12.4
